This is an account of results in the supplement of paper PMC11417369.

Some of the results follow.

The assay deals with PF3D7_0420300 AP2 domain 1 (GST-tagged). Description: gcPBM binding intensity (ln(normalized median fluorescence intensity)); higher = stronger DNA binding. An outline of the steps:
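Alexa488 anti-GST antibody, scanned at 488 nm, detected GST-tagged P. falciparum DNA-binding domains that had been expressed in E. coli and incubated for 1 h on an Agilent 4 × 180k array. The array carried primer-extended double-stranded 36-bp intergenic genomic probes and negative controls. Binding intensity is the highest Masliner-normalised natural-log median intensity across replicate spots of either orientation of each probe.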
Consider “CTAAAAATCTTTTGTTGTACTTTTAGATAATCAGGA [XGTACX_site3968]”, for which the “gcPBM binding intensity (ln)” value worked out at 8.77.
Turning to “AAGTAAAAAAATAGCACACACACAAAAACACAGACA [CACACA_site4839]”, the “gcPBM binding intensity (ln)” value was determined as 10.2.
On to “AAAGGGATGTTCATTCTTTTTTTTTTTTTTGTATAT [CACACA_negctrl_site511]”, for which the “gcPBM binding intensity (ln)” value came out at 9.28.
As to “TATATTTTTTTTGTGCGTACATACCATTTTAATAAT [XGTACX_site2751]”, the “gcPBM binding intensity (ln)” value worked out at 9.27.
With “CACAAACAAAAACACACACACACACCCACAAAAATG [CACACA_site2429]” the figure was 10.1; with “AATTATTGTATGCTATACGTTCCCCTCTAATTTATC [CACACA_negctrl_site1052]”, 9.46.
Regarding “TATTATTTTATGAATACACACATATACGAAAATATT [CACACA_site964]”, the “gcPBM binding intensity (ln)” value came to 9.45.
The figure for “ATTGGGTACAAATACACACACATATAAATATTAATA [CACACA_site7173]” is 9.81; for “TATTTTTATATAATGTGTACTTATACCTTATTTTTT [XGTACX_site1658]” it is 9.3.
As to “GAATGAAAATAAAATTGTACACATATCTATATCTAT [XGTACX_site2642]”, the “gcPBM binding intensity (ln)” value is 9.23.
The figure for “TATATTATATGTATTGCACACCTTCAACAACTACTT [CACACA_site8121]” is 9.49; for “AAAAAAAAAAAAAGTTGTACATTATTTTCCTAATTC [XGTACX_site7998]” it is 9.03.
The figure for “TTTAATTAGGATAATTGTACTGAACTAAGTATATTT [XGTACX_site1871]” is 9.03; for “ATACATATATATGTGTGTACATATGTGTATACATTT [XGTACX_site6544]” it is 9.49.
Consider “ATATGTATTAAGTGTACACATATAATGGGTTTGTTA [CACACA_site5682]”, for which the “gcPBM binding intensity (ln)” value came to 9.34.
With “TTTTATAAATCTAAACGTATCTAAATGAATAATTAA [GTGCAC_negctrl_site44]” the figure was 8.84; with ATTTTCACCTGAACGGTGCATATTTAATTTTAGGTT, 9.49.
Regarding ATATATGTACAAATTGTGCGCAATAATTTTGTCTTT, the “gcPBM binding intensity (ln)” value was 9.28.
“ATAGAAACATATTGACGTACAGTATAATAATACAGT [XGTACX_site197]”: the “gcPBM binding intensity (ln)” value worked out at 9.51.
With “AAATCAACTTATTTTTGTACATATATTTATTATATA [XGTACX_site2925]” the figure was 9.48.
On to “ATATATTATAGAGGTGTGCACTACATACATTATAAT [GTGCAC_site9991]”, for which the “gcPBM binding intensity (ln)” value amounted to 9.54.
The figure for “GAAAAATTAATAAATAAACACACATATATATATATA [CACACA_site8835]” is 9.38; for “TCTTTATGTAAGGTCTTCCACAAAAAAATTAAAAAA [TGCATGCA_negctrl_site229]” it is 8.59.
With “AGGAAAATAGAAAAAGCACACATATATTTTGGAATG [CACACA_site8080]” the figure was 9.66; with “ACTTCATTTTTTTTATGTACACAGAAGATTTACAAA [XGTACX_site4021]”, 9.15; with “AAAATAATAATTAATACATGCATTAATTCTTTTTTT [TGCATGCA_site741]”, 9.07.
Turning to “ACATATGTATGAATATCAAAAAATCCCTATTTAATG [GTGCAC_negctrl_site27]”, the “gcPBM binding intensity (ln)” value came out at 9.07.
The figure for “TATATACATATATATACACACATATATATATTTTAT [CACACA_site3788]” is 9.52.
Take “CATATATTATTTAATAGTACATATAAAAGAAAAAAA [XGTACX_site4643]”: the “gcPBM binding intensity (ln)” value worked out at 9.25.
In the case of “TATATAAATAAATGTGTACACACATTAAAATCAAAC [CACACA_site8733]”, the “gcPBM binding intensity (ln)” value turned out to be 9.69.
The figure for “ATTTATTTATTTTTTTGTACGAATGTTGCACATATA [XGTACX_site4101]” is 9.17; for “GAAATAATTGTTAAAGGTACACAATGCATATACAAT [XGTACX_site238]” it is 9.37; for “ATAATATATACTAAAAGTACATATTATAATAAATTA [XGTACX_site6749]” it is 9.06.
With “ATAAAATAAATAAATATAAATATATATATATATATA [TGCATGCA_negctrl_site358]” the figure was 9.1.
With “CACTCTTAAAATAAGGTGCACTATATAACGTGATTA [GTGCAC_site9422]” the figure was 9.06.
For TATACATATTTACAAGTGCATAATATTTTACAAAAA, the “gcPBM binding intensity (ln)” value came to 9.06.
With “GTTATAACTCAAATATGTACATATTATAAAACATAT [XGTACX_site6693]” the figure was 9.18; with “TTATAGAACTATATTGCACACATAATATATATATAT [CACACA_site9042]”, 9.44.
The figure for “TATAAAAATAAGCACACACACAAATATATATTTATT [CACACA_site922]” is 10.1; for “AAAAAAAAAAAAAAAGGTACACAAATACGTCCTGCA [XGTACX_site3354]” it is 9.3; for “AATTATCAAAGTCTATACATACATACATACATACAT [GTGCAC_negctrl_site243]” it is 9.33.
With “TAATTATAATAAAAAGGTACAGAAAAGTTATACTCA [XGTACX_site6111]” the figure was 9.29.
Consider GTCAACTTGTGATAAGTGCATATATATAATAAAATG, for which the “gcPBM binding intensity (ln)” value stood at 9.2.
“AAAAAAATATAATATTTGAATAAATATAATAATATG [XGTACX_negctrl_site477]”: the “gcPBM binding intensity (ln)” value stood at 9.
In the case of “CGAAATAAATCTTATGCACACAAATAATTAATTAAA [CACACA_site8491]”, the “gcPBM binding intensity (ln)” value was found to be 9.33.
With “AATATATAGGTATTTACACACAATGTGAGATCTATA [CACACA_site3407]” the figure was 9.52; with “ATTTATGAAAAGTAAAGTACACACAGGAAAAAAAAA [XGTACX_site3564]”, 9.79.
“TAAGAAAAAGGCACACGTACATAATTCAAAATAAAT [XGTACX_site982]”: the “gcPBM binding intensity (ln)” value came to 9.77.
On to “ATATATATGTATGTATGTACTTATTTATTTATTTAT [XGTACX_site7740]”, for which the “gcPBM binding intensity (ln)” value was determined as 9.33.
The figure for “CCAATGAGGATATATACACACATACATTAAAAAAAT [CACACA_site5090]” is 9.69; for “TTTTTTTTCACACATTGTACTTTTTTATAAAATATA [XGTACX_site4351]” it is 9.34; for “ATTTAAATAATATGTACACACATTTAAAAAATTATA [CACACA_site2816]” it is 9.2.
The figure for “AACCTTACACAAGGGGTGCAATATTATTTCGATAAA [GTGCAC_site9600]” is 9; for TGCTCCTATTATATAGTGCATTTATTTTAATAAACG it is 9.04.
The figure for “TAATTTATAAAAAATTGTACATTAAACATATATATA [XGTACX_site5164]” is 9.09.
On to “TCTTTTCGTTCATGCTGTACTTAATTGCTCTAATTT [XGTACX_site4816]”, for which the “gcPBM binding intensity (ln)” value came out at 9.46.
Turning to CCCTGCCTCTCTTTGGTGCGTTGTAACCCTCGAGGA, the “gcPBM binding intensity (ln)” value is 9.12.
For the sequence “AAAAAAAAAAAAAGCACACACACATATGTGTATATA [CACACA_site8225]”, the “gcPBM binding intensity (ln)” value turned out to be 9.93.
